Source: the supplement of paper PMC4967469
The IC50 comes from the fitted curve, where viability falls to half of the control; a fit beyond the top or the lowest dose is shown as a bound at that dose. AUC, from the same fit, is the share of area under the viability curve across the 256-fold dose range; values near 1 show little effect. For part of these data: Where the top dose is marked as inferred, it was derived from the fitted curves, not read from the paper. For part of these data: Where an entry number is given, a second screen of the drug exists; the two often differ.

Tests used:
Assay in all cases: Viability of human cancer cell lines after 72 h of drug (GDSC screen)
OSU-03012 = compound: NCC(=O)Nc1ccc(-n2nc(C(F)(F)F)cc2-c2ccc3c(ccc4ccccc43)c2)cc1 [OSU-03012]; settings: top dose 16 µM; top dose inferred
Procedure: (§1)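 Human cancer cell lines in 384-well plates, medium with 10% serum, drug for 72 h over a 256-fold dose range (nine 2-fold or five 4-fold steps up to the top dose). Adherent lines were fixed and stained with the nucleic acid dye Syto60, suspension lines read with resazurin; signal relative to control wells, capped at 0 and 100%. One two-parameter sigmoid per drug and line, fitted in a mixed model over all curves with the slope shared within a line.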

CUDC-101 = compound: C#Cc1cccc(Nc2ncnc3cc(OC)c(OCCCCCCC(=O)NO)cc23)c1 [CUDC-101]; settings: top dose 5.12 µM; top dose inferred
Procedure: as §1

JNK-9L = compound: Fc1cc(-c2ccnc(Nc3ccc(-n4cnc(N5CCOCC5)n4)cc3)n2)cc(N2CCOCC2)c1 [JNK-9L]; settings: top dose 5.12 µM; top dose inferred
Procedure: as §1

QS11 = compound: OC[C@H](Cc1ccccc1)Nc1nc(Oc2ccc3c(c2)CCC3)nc2c1ncn2Cc1ccc(-c2ccccc2)cc1 [QS11]; settings: top dose 10.24 µM
Procedure: as §1

5-Fluorouracil = compound: O=c1[nH]cc(F)c(=O)[nH]1 [5-Fluorouracil]; settings: top dose 32 µM; top dose inferred
Procedure: as §1

RDEA119 = compound: COc1cc(F)c(F)c(Nc2ccc(I)cc2F)c1NS(=O)(=O)C1(C[C@H](O)CO)CC1 [RDEA119]; settings: top dose 5 µM, top dose inferred
Procedure: as §1

AC220 = compound: CC(C)(C)c1cc(NC(=O)Nc2ccc(-c3cn4c(n3)sc3cc(OCCN5CCOCC5)ccc34)cc2)no1 [AC220]; settings: top dose 1.024 µM; top dose inferred
Procedure: as §1

Cell Line	AUC (OSU-03012)	IC50 (OSU-03012) [nM]	AUC (CUDC-101)	IC50 (CUDC-101) [nM]	AUC (JNK-9L)	IC50 (JNK-9L) [nM]	AUC (QS11)	IC50 (QS11) [nM]	AUC (5-Fluorouracil)	IC50 (5-Fluorouracil) [nM]	AUC (RDEA119; screen: GDSC drug entry 1526)	IC50 (RDEA119; screen: GDSC drug entry 1526) [nM]	AUC (AC220)	IC50 (AC220) [nM]	AUC (RDEA119; screen: GDSC drug entry 1014)	IC50 (RDEA119; screen: GDSC drug entry 1014) [nM]
SW872 (soft tissue, adherent)	0.665	2730	0.788	2020	0.572	493	0.86	7280	0.964	> 32000	0.629	681	0.989	> 1020		
SW900 (lung squamous cell carcinoma, adherent)	0.698	3990	0.731	1640	0.706	1360	0.984	> 10200	0.87	> 32000	0.778	2380	0.984	> 1020	0.985	> 5000
SW948 (large intestine, adherent)	0.892	> 16000	0.77	2920	0.687	1380	0.977	> 10200	0.684	8360	0.909	> 5000	0.98	> 1020	0.831	> 5000
SW954 (urogenital system, adherent)	0.665	2890	0.3	87.2	0.568	493	0.869	9600	0.762	11600			0.983	> 1020	0.819	2890
SW962 (urogenital system, adherent)	0.628	2470	0.591	606	0.885	> 5120	0.842	9890	0.92	> 32000	0.639	833	0.967	> 1020	0.682	1150
SW982 (soft tissue, adherent)	0.699	3690	0.587	557	0.393	161	0.908	> 10200	0.835	21900	0.71	1250	0.984	> 1020	0.516	346
SW1088 (glioma, adherent)	0.857	> 16000	0.935	> 5120	0.897	> 5120	0.884	> 10200	0.972	> 32000	0.898	> 5000	0.966	> 1020		
SW1271 (small cell lung carcinoma, adherent)	0.712	4390	0.56	479	0.484	287	0.917	> 10200	0.897	> 32000	0.72	1460	0.983	> 1020	0.763	2060
SW1417 (large intestine, adherent)	0.867	> 16000	0.631	787	0.674	1070	0.966	> 10200	0.958	> 32000	0.879	> 5000	0.977	> 1020	0.788	2610
SW1463 (large intestine, adherent)	0.825	> 16000	0.904	> 5120	0.596	706	0.968	> 10200	0.911	> 32000	0.688	1560	0.977	> 1020		
SW1710 (bladder, adherent)	0.476	856	0.615	672	0.441	219	0.704	2460	0.955	> 32000	0.807	2670	0.984	> 1020	0.76	1810
SW1783 (glioma, adherent)	0.77	5490	0.8	2200	0.535	395	0.965	> 10200	0.984	> 32000			0.991	> 1020	0.952	> 5000
SW1990 (pancreas, adherent)	0.674	3360	0.956	> 5120	0.657	949	0.91	> 10200	0.942	> 32000	0.87	> 5000	0.985	> 1020		
Saos-2 (osteosarcoma, adherent)	0.817	14400	0.974	> 5120	0.73	1940	0.977	> 10200	0.981	> 32000	0.968	> 5000	0.981	> 1020	0.932	> 5000
SiHa (cervix, adherent)	0.986	> 16000	0.972	> 5120	0.705	1340	0.986	> 10200	0.987	> 32000	0.907	> 5000	0.987	> 1020	0.937	> 5000
T84 (large intestine, adherent)	0.716	4120	0.762	1860	0.686	1070	0.859	8780	0.813	17700	0.92	> 5000	0.945	> 1020	0.973	> 5000
T98G (glioma, adherent)	0.88	14500	0.888	5040	0.596	574	0.99	> 10200	0.958	> 32000	0.96	> 5000	0.985	> 1020	0.944	> 5000
T-T (oesophagus, adherent)	0.648	2560	0.566	483	0.384	153	0.806	5160	0.96	> 32000	0.951	> 5000	0.987	> 1020	0.876	4950
